23 molecules from ChEMBL document CHEMBL4888484, “Replenishing the malaria drug discovery pipeline: Screening and hit evaluation of the MMV Hit Generation Library 1 (HGL1) against asexual blood stage Plasmodium falciparum ,using a nano luciferase reporter read-out” (2022) can be followed below.

In all, about 150,000 compounds went through this assay and about 540 (0.36%) showed an effect of 50% or more. The list shows a part of the results.

The assay concerns Plasmodium falciparum. In words: Primary screen in NF54 nanoGlo assay, in single point, at 2uM, 72h; a lower Z score goes with more inhibition. The format is functional, Erythrocyte. As to conditions: timepoint 72 hour.
As for `CN=C(NC)N[C@@H](C)c1ccc(OCC2CC2)c(F)c1`, the % Inhibition – broadly, the drop in the measured response relative to a control, in per cent – is recorded as -5% and the Z score amounted to 0.52.
For `CCn1c(C)cc(C(=O)N(C)Cc2c(C)nc3ccccn23)c1C` the same measures were -17% and 3.38.
`O=C1CCCCCN1CC(=O)N1CCC[C@H](n2cccn2)C1`: the “% Inhibition” value is recorded as -4% and the Z score is 0.51.
For `CCCCCS(=O)(=O)N1CC[C@H](CO)C1` the same measures were -2% and 0.24.
Take `COc1ccccc1N1CCN2c3ccc(C(F)(F)F)cc3CC(C(=O)NC3CCCCC3)C2C1` (stereo unspecified): the “% Inhibition” value is listed as -16% and the Z score was 1.79.
`Cn1cc(S(=O)(=O)NCC(=O)NC2CCCCC2)cn1`: the “% Inhibition” value was -4% and the Z score worked out at 0.52.
For `Cc1ccc(CN(C)C2CCN(CCn3cccn3)CC2)s1` the same measures were -12% and 0.98.
For `CC(C)CN(Cc1cccnc1)C1CN(C(=O)CCc2nc3ccccc3s2)C1` the same measures were -2% and 0.31.
Consider `CC1(C)CN(C(=O)CCCN2CCCC2=O)CC[C@]1(C)O`, for which the “% Inhibition” value was 1% and the Z score is -0.21.
For `O=C(c1[nH]nc2c1CCC2)N1CCN(S(=O)(=O)c2ccc(Cl)cc2)CC1` the same measures were 34% and -3.85.
Regarding `O=C(CCc1cn[nH]c1)NC[C@H]1CC[C@H](CO)CC1`, the “% Inhibition” value is listed as -9% and the Z score turned out to be 1.07.
For `O=C(c1coc2ccccc12)N1CCN(C2CCCCC2)CC1` the same measures were 3% and -0.45.
On the same counts, the results for `CC1CC(N(C(=O)c2ccc(C(C)(C)C)cc2)c2ccccc2)c2ccccc2N1` (stereo unspecified) are 3% and -0.33.
For `O=C(CN(CCc1cccc(F)c1)C1CC1)N1CCOCC1`, the “% Inhibition” value is reported as -2% and the Z score is 0.31.
On the same counts, the results for `O=C(Nc1cc(F)c(F)c(F)c1)[C@H](Cc1ccccc1)NC(=O)N1CCOCC1` are -3% and 0.39.
Take `CCOc1ccccc1NC(=O)[C@H]1CCCN(C(=O)c2ccc(OC)c3ccccc23)C1`: the “% Inhibition” value is listed as -14% and the Z score turned out to be 2.67.
On the same counts, the results for `COc1ccc(CN(Cc2ccco2)C(=O)c2ccc(Cl)cc2)cc1OS(=O)(=O)c1cccc(C(F)(F)F)c1` are -6% and 0.6.
For `Cc1cnc(C(=O)N2CCC[C@H](c3nc(C4CCOCC4)no3)C2)cn1` the same measures were -4% and 0.66.
On to `COCc1ccc(S(=O)(=O)Nc2nccc(C3CC3)n2)cc1`, for which the “% Inhibition” value is recorded as -4% and the Z score was 0.36.
Turning to `CC(c1cn[nH]c1)N1C(=O)C2CC3CCCCC3N2C1=O` (stereo unspecified), the “% Inhibition” value was -2% and the Z score stood at 0.42.
On the same counts, the results for `COCc1nc(C)cc(NC[C@@H](CO)Cc2ccncc2Cl)n1` are 1% and -0.1.
For `COc1ccc(-c2ccc(C(=O)Nc3ccc(-c4nc5ncccc5o4)cc3)o2)cc1Cl` the same measures were -21% and 3.05.
On the same counts, the results for `O=C(NC[C@@H]1CCCN1)Nc1cc(F)cc(Cl)c1` are 3% and -0.6.
